Measurements from PubChem BioAssay AID1240 (Sanford-Burnham Center for Chemical Genomics, 2008).
The whole screen tested about 50,000 compounds, of which about 800 (1.6%) showed an effect of 50% or more. The list shows a part of the results.

Molecular target: Bcl-2-like protein 10 (Homo sapiens) (UniProt Q9HD36)
Assay: TR3 peptide-Bcl-B binding displacers, biochemical primary FP assay, phenotype converters (AID 1240);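 note: 0% = Bcl-B with tracer peptide and DMSO and 100% = tracer peptide lacking Bcl-B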
Settings: GST-Bcl-B / FITC-TR3 peptide fluorescence polarization; stronger effect = higher value; compound at 3.75 mg/L

Sequence of UniProt Q9HD36 (Q9HD36 whole entry, looked up): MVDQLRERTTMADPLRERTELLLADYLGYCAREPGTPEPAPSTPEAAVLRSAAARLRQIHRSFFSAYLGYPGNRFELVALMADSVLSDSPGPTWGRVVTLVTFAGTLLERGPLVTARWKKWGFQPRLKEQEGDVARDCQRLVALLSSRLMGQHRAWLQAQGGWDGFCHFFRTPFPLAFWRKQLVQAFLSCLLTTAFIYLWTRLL

Compound | displacement [%]
CCN(CC)C(=O)c1sc(NC(=O)c2ccc(C)c(C)c2)c(C(=O)OC)c1C | -1.5
CCc1c(C)sc(NC(=O)C(C)Oc2cccc(Cl)c2)c1C(N)=O (centres undefined) | 8.5
CC(=O)Nc1nonc1OCCOc1nonc1NC(C)=O | 11.4
O=c1oc(/C=C/c2ccc([N+](=O)[O-])cc2)nc2ccc(Cl)cc12 | -15.5
CCN1C(=O)/C(=C\c2ccc(OCCOc3cccc(OC)c3)c(OC)c2)SC1=S | 16.2
CC(C)c1ccc(/C=C/C(=O)NC(=S)Nc2ccc(S(=O)(=O)N=C(N)N)cc2)cc1 | 8.3
COC(=O)C12CC3CC(C1)CC(c1ccc([N+](=O)[O-])cc1)(C3)C2 | 11.1
COc1cccc(Nc2cc(=O)n(-c3ccccc3)c3ccccc23)c1 | -7.3
COc1ccc(C2(CC(=O)Nc3ccccc3C)C(=O)c3ccccc3C2=O)cc1 | -1.7
Cc1nc2ccccc2c(=O)n1/N=C/c1ccco1 | -6.3
CCOc1ccc(/C=N/N2CCN(Cc3cccc4ccccc34)CC2)cc1OC | -8
CS(=O)(=O)N(Cc1ccc(C(=O)NCCSCc2ccccc2Cl)cc1)c1ccccc1 | 0.1
CCOC(=O)c1c(NC(=O)c2ccccc2)sc(C)c1CC | -8.6
CCOc1ccc(/C=C2/SC(=S)N(c3ccccc3OC)C2=O)cc1 | -1.6
COc1ccc(CN2CCN(C3CCC(c4ccccc4)CC3)CC2)c(OC)c1 (centres undefined) | -1.6
COc1ccc(C(=O)N2CCN(c3ccccc3)CC2)c(OC)c1 | 5.2
CC1CC(Nc2ccccc2)c2ccccc2N1C(=O)c1ccc(Cl)c(Cl)c1 (centres undefined) | 9.2
Cc1ccsc1C1Nc2ccc3ccccc3c2C2=C1C(=O)CC(C)(C)C2 (centres undefined) | -0.1
CC1=C(C#N)c2nc(N)c(C#N)c(C)c2/C1=C\c1ccc(-c2ccc([N+](=O)[O-])cc2Cl)o1 | -14.7
CC(=O)c1cccc(N2C(=O)C3C4c5ccccc5C(C(C)=O)(c5ccccc54)C3C2=O)c1 (centres undefined) | 10.3
O=C(COc1ccc(Cl)cc1Br)NCc1ccc2c(c1)OCO2 | 11.6
COc1cc(OC)c(OC)cc1/C=C1/C(=O)NC(=O)N(c2ccccc2)C1=O | 1.4
CN1C(=O)/C(=C\c2ccccc2OCCOc2ccc(Br)cc2)SC1=S | 2.3

Compound | displacement [%]
Cc1cc(=O)[nH]c(SCC(=O)Nc2cccc(C)c2C)n1 | -9.1
CCN1C(=O)/C(=C\c2ccc(N(C)C)cc2)C(C(=O)OC)=C1C | -2.3
O=C(O)C1C2C=CC3(CN(CC(O)COc4ccccc4)C(=O)C13)O2 (centres undefined) | -2.7
CC(C)(C)c1cc(C(C)(C)C)c2nc(-c3ccccc3O)oc2c1O | 1.1
CCCC(=O)Nc1cccc(NC(=O)c2cc([N+](=O)[O-])ccc2Br)c1 | -0.4
CC1(C)CCC[C@@]2(C)C1CC[C@]1(C)OC(=O)C[C@H]21 (some centres undefined) | -0.1
O=C(CSc1nncn1-c1ccccc1)c1ccc(F)cc1 | 13.4
CCOc1ccc([C@H]2[C@H](C(=O)c3ccccc3)N3c4ccccc4C=CC3C2(C#N)C#N)cc1 (some centres undefined) | 15.3
S=c1[nH]nc(-c2ccco2)n1C1CCCCC1 | 7.6
N#Cc1c(/N=C/N2CCCCC2)sc2c1CCCC2 | 3.2
Cc1ccc(-c2csc(N/N=C/c3cc(Br)ccc3O)n2)cc1 | -4.5
CCc1ccc(N2C(=O)/C(=C/c3ccc(O)c(OC)c3)C(=O)NC2=S)cc1 | 11.9
CCOc1c(/C=C(\C#N)C(N)=O)c2ccccc2n1-c1c(Cl)cccc1Cl | -9.2
CCOC(=O)C1=C(O)CSC1=Nc1ccc(Cl)cc1Cl | -8.1
CS(=O)(=O)N(CC(=O)Nc1cccnc1)c1ccc(Oc2ccccc2)cc1 | -3.6
NC(=O)c1cccc(N=Cc2cc(Cl)cc(Cl)c2O)c1 | 145
CCN(CC)CCCNC(=O)c1ccc(Cl)cc1 | 11
COc1ccccc1C=NN1CCN(Cc2ccc(C)cc2C)CC1 | 13.6
CCc1c(C)nc2[nH]nc(-c3ccccc3)n2c1=O | 8.6
Cc1ccc(NS(=O)(=O)c2cc(Cl)ccc2Cl)c([N+](=O)[O-])c1 | -12.3
CCOc1cc(/C=N/NC(=O)c2cccs2)ccc1OC(=O)c1ccc(C)cc1 | -5.1
COc1ccc(NC(C)c2ccccc2)cc1 (centres undefined) | 10
CCOc1cc(/C=N/NC(=O)c2ccccn2)ccc1OC(=O)c1cccs1 | 2.3

Compound | displacement [%]
COc1ccc(C(NC(=O)CC(C)C)NC(=O)CC(C)C)cc1 | -7.2
O=C(Cc1ccccc1)N/N=C/C=C/c1ccccc1Cl | -4.7
NC(=O)CCN1C(=O)/C(=C\c2ccc(F)cc2)SC1=S | 1.4
O=C(Nc1ccccc1)Nc1nnc(-c2ccc(F)cc2)s1 | -7
COC(=O)c1ccc(/C=C2/Sc3ccccc3C2=O)cc1 | 18.2
COc1nc(NS(=O)(=O)c2ccc(N)cc2)nc(N(C)C)n1 | -1.3
CCOC(=O)C1CCN(C(=O)CC(c2ccccc2)c2ccccc2)CC1 | 11.4
Cc1cc(-c2ccccc2)c2nncn2n1 | 8.3
COc1ccc(N2C(=O)C3C4CC(=O)C(c5ccccc54)C3C2=O)cc1 (centres undefined) | 1.6
CC(=O)c1cccc(NC(=O)c2ccc(-c3ccc(Cl)cc3Cl)o2)c1 | -4.6
CC(NC(=O)CSc1ncc(-c2ccccc2)[nH]1)c1ccccc1 (centres undefined) | -9.6
COc1ccc(S(=O)(=O)Nn2cnnc2)cc1 | -1
CC(C)OC(=O)C(C(=O)C(F)(F)F)c1cc(NS(=O)(=O)c2ccc(Cl)cc2)ccc1O (centres undefined) | 7.9
O=C(CNc1cccc(Cl)c1)c1ccc(Br)cc1 | 11.2
N#C/C(=C\c1ccc(-c2ccc(Cl)c(Cl)c2)o1)c1ccccc1 | 135
COc1ccc2c(c1)-c1c(ssc1=S)C(C)(C)N2C(=O)CSc1nc(C)cc(C)n1 | 12.1
CCC(C)c1ccc(OCCOc2ccc(/C=C3/SC(=S)N(C)C3=O)cc2)cc1 (centres undefined) | 3
O=C(NCc1cccs1)C(=O)Nc1ccccc1 | -1.2
COc1ccc(/C=c2\sc3nnc(-c4ccc(C)cc4)n3c2=O)c(OC)c1 | 73.8
CC(=O)Nc1ccc(NC(=O)c2ccc(Cl)c(Cl)c2)cc1 | 1.7
O=C(NNc1nc(Nc2ccccc2)nc(N2CCOCC2)n1)Nc1ccc(Cl)cc1 | 12.2
COc1ccc(N(CC(=O)Nc2cc(C)ccc2C)S(C)(=O)=O)cc1Cl | 9.1
O=C(Nc1ccc2nn(-c3ccccc3)nc2c1)c1ccc([N+](=O)[O-])cc1 | 4.5
